Tests used:
c-MET-His tag protein = target: T1, c-MET-His tag protein (human, UniProt P08581 25-932); assay: titration ELISA, c-MET-His coated
T1 construct: also called cMET-HIS tagged; not shown: His tag

cMET [1] = target: T2, cMET (UniProt P08581 25-932); assay: BLI (Probelife), BsAb conc. 114 nM
T2 construct: also called cMET protein

cMET [2] = target: T2, cMET; assay: BLI (Probelife), BsAb conc. 1.41 nM
cMET [3] = target: T2, cMET; assay: BLI (Probelife), BsAb conc. 12.7 nM
cMET [4] = target: T2, cMET; assay: BLI (Probelife), BsAb conc. 38.1 nM
cMET [5] = target: T2, cMET; assay: BLI (Probelife), BsAb conc. 4.23 nM
cMET [6] = target: T2, cMET; assay: separate experiment, method not restated (BLI in this example), cMET binding

T2 sequence (P08581 25-932): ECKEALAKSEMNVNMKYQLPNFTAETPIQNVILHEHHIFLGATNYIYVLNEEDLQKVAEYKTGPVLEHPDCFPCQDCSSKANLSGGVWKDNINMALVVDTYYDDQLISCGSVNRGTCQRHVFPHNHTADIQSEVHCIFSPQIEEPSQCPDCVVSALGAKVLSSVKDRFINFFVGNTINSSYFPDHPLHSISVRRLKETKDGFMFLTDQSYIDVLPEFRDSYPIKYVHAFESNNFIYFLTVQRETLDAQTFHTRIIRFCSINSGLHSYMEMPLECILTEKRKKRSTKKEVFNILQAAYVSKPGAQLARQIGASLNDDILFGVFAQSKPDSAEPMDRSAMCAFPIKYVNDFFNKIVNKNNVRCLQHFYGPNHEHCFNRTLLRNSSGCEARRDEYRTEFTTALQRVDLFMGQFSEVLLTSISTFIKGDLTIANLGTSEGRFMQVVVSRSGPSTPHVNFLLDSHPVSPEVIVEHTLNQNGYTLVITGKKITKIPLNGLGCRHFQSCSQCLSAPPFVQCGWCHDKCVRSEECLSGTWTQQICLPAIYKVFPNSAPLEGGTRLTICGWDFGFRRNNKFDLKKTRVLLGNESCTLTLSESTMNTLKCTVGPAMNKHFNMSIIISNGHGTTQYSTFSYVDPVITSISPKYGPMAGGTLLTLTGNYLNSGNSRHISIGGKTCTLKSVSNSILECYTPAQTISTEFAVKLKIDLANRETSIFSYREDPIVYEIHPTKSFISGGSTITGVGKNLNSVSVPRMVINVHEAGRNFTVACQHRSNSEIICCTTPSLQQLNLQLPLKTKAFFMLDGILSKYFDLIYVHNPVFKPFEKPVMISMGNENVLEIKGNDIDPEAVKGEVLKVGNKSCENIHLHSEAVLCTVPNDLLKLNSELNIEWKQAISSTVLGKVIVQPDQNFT
Sequence of c-MET-His tag protein (P08581 25-932 limits assumed): as the sequence (P08581 25-932) above

- EC50 (c-MET-His tag protein): 8.61 ng/mL
- Kd (cMET [1]): 317 pM
- kon (cMET [1]): 2.48e+06 M⁻¹ s⁻¹
- Kd (cMET [2]): 317 pM
- koff (cMET [2]): 0.000785 s⁻¹
- kon (cMET [2]): 2.48e+06 M⁻¹ s⁻¹
- Kd (cMET [3]): 317 pM
- koff (cMET [3]): 0.000785 s⁻¹
- kon (cMET [3]): 2.48e+06 M⁻¹ s⁻¹
- Kd (cMET [4]): 317 pM
- koff (cMET [4]): 0.000785 s⁻¹
- kon (cMET [4]): 2.48e+06 M⁻¹ s⁻¹
- Kd (cMET [5]): 317 pM
- koff (cMET [5]): 0.000785 s⁻¹
- kon (cMET [5]): 2.48e+06 M⁻¹ s⁻¹
- Kd (cMET [6]): 239 pM
B1: 1H1-cMET/EGFR-Fc(WT)-V3 (bispecific antibody)
heavy: QVQLVESGGGLVQPGGSLKLSCAVSASLFSINTMGWFRQGPGKEREFVAAISWSGGNYYATFARGRFTISSEDAKDTVYLQMDNLKPEDTAVYFCGADRWGTGSMNAPDYDYWGRGTLVTVSSGGGGSGGGGSGGGGSQVQLVESGGGVVQPGRSLRLSCAASGFTFSTYGMHWVRQAPGKGLEWVAVIWDDGSYKYYGDSVKGRFTISRDNSKNTLYLQMNSLRAEDTAVYYCARDGITMVRGVMKDYFDYWGQGTLVTVSS[omitted - human IgG1 constant region]
light: AIQLTQSPSSLSASVGDRVTITCRASQDISSALVWYQQKPGKAPKLLIYDASSLESGVPSRFSGSESGTDFTLTISSLQPEDFATYYCQQFNSYPLTFGGGTKVEIKRTVAAPSVFIFPPSDEQLKSGTASVVCLLNNFYPREAKVQWKVDNALQSGNSQESVTEQDSKDSTYSLSSTLTLSKADYEKHKVYACEVTHQGLSSPVTKSFNRGEC
notes: also called 1H1 v3; 1H1cMET/EGFR-Fc(WT) BsAb

— US20230399408A1 (AB THERAPEUTICS, published 2023)
